Assay results: article PMC6919601, “Identification of Plasmodium dipeptidyl aminopeptidase allosteric inhibitors by high throughput screening” (PLoS ONE, 2019)
Where “and” joins values, the source holds several entries; their conditions need not be identical. Equal values may be shown once. Screen size: about 110,000 compounds; about 230 (0.21%) showed an effect of 50% or more. This is one part of the list.

Target: DPAP1 (Plasmodium falciparum, UniProt Q8IIJ9)
Test: primary screen, percent inhibition; read by cleavage of a fluorogenic dipeptide substrate; higher = more effect of the substance
Design: species or system P. falciparum D10 trophozoite lysates; single well
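Further: 30 min substrate incubation versus DMSO and 10 µM JCP410 controls.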

Sequence of DPAP1 (Q8IIJ9 whole entry, looked up): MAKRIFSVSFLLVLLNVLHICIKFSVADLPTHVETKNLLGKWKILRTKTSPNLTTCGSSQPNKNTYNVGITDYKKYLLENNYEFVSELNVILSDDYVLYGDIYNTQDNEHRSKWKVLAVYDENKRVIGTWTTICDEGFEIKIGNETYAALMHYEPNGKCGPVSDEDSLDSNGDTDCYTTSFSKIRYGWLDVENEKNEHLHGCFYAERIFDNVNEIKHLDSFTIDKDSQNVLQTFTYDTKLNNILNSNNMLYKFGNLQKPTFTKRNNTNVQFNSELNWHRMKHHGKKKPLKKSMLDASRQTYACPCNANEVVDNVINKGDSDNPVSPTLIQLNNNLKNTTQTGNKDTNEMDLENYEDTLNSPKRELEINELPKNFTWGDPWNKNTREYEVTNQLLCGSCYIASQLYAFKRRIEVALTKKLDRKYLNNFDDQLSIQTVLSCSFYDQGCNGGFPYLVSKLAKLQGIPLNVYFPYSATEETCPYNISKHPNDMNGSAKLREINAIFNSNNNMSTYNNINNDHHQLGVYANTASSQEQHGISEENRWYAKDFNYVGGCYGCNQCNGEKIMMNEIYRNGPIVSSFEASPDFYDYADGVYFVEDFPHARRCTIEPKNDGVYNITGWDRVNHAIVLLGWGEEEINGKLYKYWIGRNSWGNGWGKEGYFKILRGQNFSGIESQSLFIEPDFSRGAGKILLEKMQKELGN

Compound	% Inhibition @ 10 uM
Cc1ccc(O)c(-n2cc3c(c2-c2ccc(Cl)cc2)c(=O)n(C)c(=O)n3C)c1	0.366%
CCN(Cc1ccccc1)C(=O)N[C@@H](CC(C)C)C(=O)NCC#N	-6.98%
CC12CN3CC(c4ccccc4)(CN(C1)C31CCCCC1)C2=O	-3.08%
COc1ccc(CCC(C)NC2C3CC4CC(C3)CC2C4)cc1 (stereo not drawn)	1.26%
O=C(c1cc2ccccc2oc1=O)N(c1ccccc1)c1ccccc1	1.8%
NC(=O)C1CCN(C2CC3CCC2C3)CC1 (stereo not drawn)	1.37%
Cc1ccc(C)c(CN2CCN(Cc3ccccc3)CC2)c1	-5.41%
CC(CNc1nc2ccc(Cl)cc2n2cnnc12)c1ccccc1 (stereo not drawn)	1.15%
O=C(COc1ccc(S(=O)(=O)N2CCCC2)cc1)Nc1ccc(Oc2ccccc2)cc1	2.6%
O=C(O)CN1C(=O)c2ccccc2C1=O	0.968%
Cc1ccc(CN(Cc2ccco2)C(=O)COc2ccc(Br)cc2)o1	2.08%
COc1ccc(N(CN2C(=O)C3CCCCC3C2=O)C(C)=O)cc1 (stereo not drawn)	-0.28%
O=C(Cn1ncc2c1-c1ccccc1OC2)NC1CCN(Cc2ccccc2)CC1	-0.692%
CCOc1ccc(CC(=O)Nc2cccc(C(F)(F)F)c2)cc1OCC	-0.132%
Cc1ccc(CN2CCN(C(=O)COc3ccccc3)CC2)cc1	0.0504%
COc1cccc(CNc2nc3ccc(C)cc3n3nnnc23)c1	-0.414%
Cc1ccccc1C1C=C(c2ccc(Br)s2)Nc2nnnn21 (stereo not drawn)	-1.62%
CC(C)CC(C(=O)NCC#N)c1nc(-c2ccc(-c3ccc(N4CCNCC4)cc3)cc2)cs1 (stereo not drawn)	-4.94%
Cn1c(=O)n(C)c2cc(/C=C3/SC(=O)N(CC(=O)Nc4cccc5ccccc45)C3=O)ccc21	39%
CC(CN1CCN(Cc2ccccc2)CC1)c1ccccc1 (stereo not drawn)	3.68%
CCOC(=O)C1=C(C)N(c2ccc(OCC)cc2)C(=O)/C1=C\c1ccc(F)cc1	-3.5%
Cc1cc(C)c(C)c(S(=O)(=O)NCC(=O)NCc2ccco2)c1C	0.709%
CCN(CC)C(=O)CSc1nnc(-c2ccccc2Cl)o1	2.92%
O=C(NCCCn1ccnc1)c1cc2nc(-c3ccccc3)cc(-c3ccccc3)n2n1	3.54%
Cc1cccc(Cl)c1OCCCc1c(C)n[nH]c1C	-6.47%
N#CC1=C(N)Oc2c(ccc3ccccc23)C1c1ccc(-c2ccccc2)cc1 (stereo not drawn)	1.26%

Compound	% Inhibition @ 10 uM
COc1ccc(-c2nnc3sc(NC(=O)CCc4ccccc4)nn23)cc1OC	1.96%
Cc1cc(-c2ccco2)c(C#N)c(S)n1	51.7%
Cn1c(=O)[nH]c(=O)c2c1nc(NCc1ccco1)n2Cc1ccc(F)cc1	-10.8%
CC(C)OC(=S)/N=C(\NS(=O)(=O)c1ccccc1)c1ccccc1	35%
C=CCN(CC=C)c1nc(-c2ccccc2)nc2ccccc12	3.8%
Cc1ccc(C2C(=O)N(C3CCC(C)CC3)CC(=O)N2Cc2ccc(F)cc2)cc1 (stereo not drawn)	-2.14%
O=C1C2(c3ccccc3)CN3CC1(c1ccccc1)CN(C2)C3c1ccccc1O (stereo not drawn)	-3.24%
COc1ccc(Cl)c(Cn2c(NCC3CCCO3)nc3c2c(=O)n(C)c(=O)n3C)c1 (stereo not drawn)	0.248%
CCCCN(C)c1c(N2CCN(C(=O)OCC)CC2)c(=O)c1=O	-1.44%
Cc1cc2c(cc3c(=O)n(CC(=O)NC4CCCc5ccccc54)ncn32)s1 (stereo not drawn)	1.68%
CC(C)CCN1C(=O)c2ccc(C(=O)Nc3cc(Cl)ccc3O)cc2C1=O	9.17%
Cc1noc(C)c1S(=O)(=O)NCC(=O)O	-5.76%
COc1cccc(C(=O)Nc2ccc(Br)c(C)n2)c1	12.7%
COc1ccc2[nH]c(C(=O)O)c(CCNC(C)=O)c2c1	-7.02%
Cc1cccc(NC(=O)c2ccc(OC(C)C)cc2)c1	-3.71%
Cc1c(/C=C2\NC(=O)NC2=O)c2ccccc2n1C	4.94%
CCCCC12CN3CC(C)(CN(C1)C3c1ccc(CC)cc1)C2=O (stereo not drawn)	-3.49%
CCCc1nc2ccccc2c(=O)n1-c1ccc(Br)cc1	-1.41%
CCn1ncc(C2=NOC(C(=O)Nc3cc(C)on3)C2)c1C (stereo not drawn)	-6.68%
Cc1ccc(C(=O)CCC(=O)Nc2cccc(C)c2)cc1	-2.76%
O=c1/c(=C/c2ccccc2Cl)sc2nc(-c3cccs3)nn12	3.54%
COC1=NC(N)=C(S(=O)(=O)c2ccccc2)C(c2ccccc2)C1S(=O)(=O)c1ccccc1 (stereo not drawn)	7.55%
CC(C)=CCCC1=CCC(COC(=O)Nc2ccccc2)C(C)C1 (stereo not drawn)	5.35%
CN(C)CCN(C)Cc1ccc(Cl)cc1	-0.414%
C=CCN1C(=O)c2ccccc2C1(O)c1ccc(F)cc1 (stereo not drawn)	5.35%
CN(C)CCCN(C(=O)c1ccco1)c1nc2ccc(Cl)cc2s1	-1.87%

Compound	% Inhibition @ 10 uM
CNC(=O)c1sc2nc(C)cc(C)c2c1-n1cccc1	5.42%
N=c1c2c3c(sc2nc2n1CCCCC2)CCCC3	4.06%
COc1cc(OC)cc(C(=O)NCCOc2ccc(Cl)cc2)c1	-6.43%
Oc1nc2ccccc2c(O)c1Sc1ccccc1	-0.496%
Cc1cccc(C(=O)Nc2c(C)nn(Cc3ccc(Cl)cc3)c2C)c1	-4.41% and -2.74%
CC1(C)CC2=Nc3ccccc3NC(c3cc(Br)ccc3O)C2=C(O)C1 (stereo not drawn)	-2.07%
CCc1cccc(NC(=O)C2C3C=CC(O3)C2C(=O)O)c1 (stereo not drawn)	3.27%
Cc1ccccc1CNC(=O)c1ccc(N)cc1C(=O)O	-5.32%
O=C(c1cccs1)N1CCN(c2ccc(Cl)c(Cl)c2)CC1	1.93%
CCOC(=O)c1ccc(CSc2ccc(Cl)cc2)o1	-0.812%
COc1cc(CN2CCN(C3CCCCCC3)CC2)cc(OC)c1OC	3.1%
CCOC(=O)c1c(C)[nH]c(C)c1S(=O)(=O)N1CCC(C(=O)NC(C)(C)CC)CC1	-3.05%
O=C(c1sc2ccccc2c1Cl)N1CCCCC1	2.4%
CN1CCc2[nH]c3ccccc3c2C1	-1.3%
CCc1sc(NC(=O)c2sc(C)nc2C)nc1-c1ccc(Br)cc1	4%
Cn1c(=O)c2c(nc(Cl)n2Cc2ccccc2Cl)n(C)c1=O	11.5%
CCC(=O)NC(c1ccccc1)c1c(O)ccc2ccccc12 (stereo not drawn)	-4.08%
Cc1nnc(N2CCC(C(=O)NCCN(C)C)CC2)c2nn(-c3ccc(Cl)cc3)c(C)c12	1.23%
Cc1nc2c3cccnc3nn2c(C)c1CCC(=O)NCC(C)c1ccccc1 (stereo not drawn)	-0.0115%
Cc1c(CN2CCOCC2)c(O)n(CCO)c(=O)c1C#N	-2.56%
CCN(CCC/N=c1/c(-c2ccccc2)c(O)c1=O)Cc1ccccc1	1.14%
CC1CN(c2ccc(Cl)nn2)CC(C)O1 (stereo not drawn)	2.73%
COc1ccc(N2CCN(Cc3ccc(SC)cc3)CC2)cc1	3.84%
Cn1ncc(Cl)c(Oc2ccc(C(C)(C)C)cc2)c1=O	5.56%
O=C(O)CSc1cccc(SCC(=O)O)c1	-1.74%
O=C(Nc1nc2ccccc2s1)c1ccc(S(=O)(=O)N2CCCCC2)cc1	-1.46%

Compound	% Inhibition @ 10 uM
CC12C=CC3(CN(Cc4ccccc4)C(=O)C3C1C(=O)NCc1ccc(Cl)cc1)O2 (stereo not drawn)	1.27%
COC(=O)c1cccc(-c2ccc(/C=C3\SC(=N)N(c4nccs4)C3=O)o2)c1	-6.84%
CCCCN(C)C(=O)Cn1cc2c(n1)CCC(C)C2 (stereo not drawn)	-0.0741%
COc1ccc(/C=N/N=C2\SCC(=O)N2Cc2ccccc2C)cc1OC	-3.27%
Cc1ccc(S(=O)(=O)N(CC(=O)NCc2ccc(Cl)cc2)Cc2ccccc2)cc1	-1.6%
CC(=O)c1cccc(NS(=O)(=O)c2cccc(Cl)c2)c1	0.889%
COc1ccc(C2c3c(-c4c(C)cc(C)cc4O)n[nH]c3C(=O)N2CCO)cc1 (stereo not drawn)	0.00706%
Cc1c2c(ccc3ccccc32)s[n+]1CCCS(=O)(=O)O	-5.4%
C=CCOc1ccccc1/C=C(\C#N)c1nc2ccccc2[nH]1	2.36%
CC(C)(C)N1C(=O)C2C3C=CC(C3)C2C1=O (stereo not drawn)	1.34%
CCOc1cc(CCn2cnc3c4cc(C)ccc4nc-3c2O)ccc1OC	3.24%
Cc1ccc2c(Cl)c(C(=O)Nc3cc(C)on3)sc2c1	-1.08%
O=C(/C=C(\c1ccccc1)C(F)(F)C(F)F)c1cccs1	-0.597%
Cc1c(C(=O)N2CCC(C(N)=O)CC2)oc2c1-c1nn(Cc3cccc(Cl)c3)cc1CC2	-0.0401%
CCCOC(=O)C1=C(C)NC(=O)NC1c1ccc(Cl)cc1 (stereo not drawn)	2.92%
O=C1c2ccccc2C(=O)N1c1ncc(Cc2ccc(Cl)cc2)s1	9.4%
Cc1ccc2oc(=O)c3cnn(CC(=O)N(C)Cc4ccccc4)c3c2c1	-3.45%
Nc1cccc(-c2nc3ccccc3s2)c1	-2.03%
Nc1c(C(=O)NCCc2ccc(Cl)cc2)sc2ccc(S(=O)(=O)N3CCCCC3)cc12	-1.34%
CCOc1ccc(NC2CC(=O)N(c3ccc(OC)cc3)C2=O)cc1 (stereo not drawn)	2.51%
COc1ccc(N2C(=O)C3C4C=CC(C4=C4CCCC4)C3C2=O)cc1 (stereo not drawn)	0.317%
Cc1ccc(C2=CC(c3c(F)cccc3Cl)n3nnnc3N2)cc1C (stereo not drawn)	0.00995%
CCOC(=O)C1=C(C)N=c2s/c(=C/c3cc(C)n(C)c3C)c(=O)n2C1c1ccccc1 (stereo not drawn)	-7.02%
CC1CCCCC1Nc1cnn(C23CC4CC(CC(C4)C2)C3)c(=O)c1Cl (stereo not drawn)	0.0579%
